Results from publication PMC8705299.
No constants are given. Whether binding was seen depends on the method and setting. Binding seen in cells or lysates may run through a third protein. Some results given as binding are weak or reduced against the parent protein; the word gives no strength.

Chains of the proteins cited; added tags and fusions are not shown. Lines headed by an entry give the natural chain unless they say otherwise; changes in a name come on top. A line that says so, or that is headed by a name, gives the form on record, which may keep a tag or linker.
UniProt O00472: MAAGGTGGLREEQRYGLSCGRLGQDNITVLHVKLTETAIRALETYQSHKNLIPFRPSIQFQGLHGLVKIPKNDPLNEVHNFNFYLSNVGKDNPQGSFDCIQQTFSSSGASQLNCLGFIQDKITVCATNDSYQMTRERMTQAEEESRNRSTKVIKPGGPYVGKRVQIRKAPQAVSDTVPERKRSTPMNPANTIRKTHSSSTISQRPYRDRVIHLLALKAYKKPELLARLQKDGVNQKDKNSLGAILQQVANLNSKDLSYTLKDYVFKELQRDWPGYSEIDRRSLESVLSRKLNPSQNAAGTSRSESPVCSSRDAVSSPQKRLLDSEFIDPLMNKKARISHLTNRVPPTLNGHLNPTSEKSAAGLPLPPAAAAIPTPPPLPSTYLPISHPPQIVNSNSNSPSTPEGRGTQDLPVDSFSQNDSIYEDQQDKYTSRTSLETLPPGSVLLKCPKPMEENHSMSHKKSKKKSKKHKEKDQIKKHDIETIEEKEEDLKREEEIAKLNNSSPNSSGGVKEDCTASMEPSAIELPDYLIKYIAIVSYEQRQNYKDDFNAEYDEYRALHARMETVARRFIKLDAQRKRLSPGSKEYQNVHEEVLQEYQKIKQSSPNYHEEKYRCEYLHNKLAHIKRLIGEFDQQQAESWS
ELL2 ΔR2-myc (full-length ELL2 harboring a deletion of region R2, aa 443–474) (O00472, form named): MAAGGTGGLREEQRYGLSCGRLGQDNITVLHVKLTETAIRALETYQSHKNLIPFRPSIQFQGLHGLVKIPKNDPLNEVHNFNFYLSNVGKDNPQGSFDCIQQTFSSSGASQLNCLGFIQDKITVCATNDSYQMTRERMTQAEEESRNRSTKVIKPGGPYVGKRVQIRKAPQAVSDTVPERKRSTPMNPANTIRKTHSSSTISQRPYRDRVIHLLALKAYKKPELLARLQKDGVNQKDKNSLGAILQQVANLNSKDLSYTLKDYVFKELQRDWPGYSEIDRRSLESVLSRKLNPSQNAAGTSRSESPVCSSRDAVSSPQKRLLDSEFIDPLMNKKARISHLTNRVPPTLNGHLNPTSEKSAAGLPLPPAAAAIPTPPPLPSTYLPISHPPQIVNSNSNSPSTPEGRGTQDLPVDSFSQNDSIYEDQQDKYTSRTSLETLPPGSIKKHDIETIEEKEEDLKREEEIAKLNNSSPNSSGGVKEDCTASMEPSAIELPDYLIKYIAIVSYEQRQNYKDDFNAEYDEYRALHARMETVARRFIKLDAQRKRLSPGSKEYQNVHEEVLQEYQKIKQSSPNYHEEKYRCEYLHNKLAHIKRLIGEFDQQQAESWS

Experiments:
[1] = target: Tax-1, EF-1a-driven (pEF-1α-Tax-1) (HTLV-1) (UniProt P03409); test: co-IP; 293T cells co-transfected, lysed after 48 h in TNE lysis buffer (10 mM NaCl, 10 mM Tris/HCl pH 7.0, 10 mM EDTA, 1% Triton X-100, 2 mM DTT); precipitation with anti-Tax antibodies overnight at 4 °C, protein G magnetic beads; blot for ELL2
[2] = target: FLAG-Tax-WT (pCAG-FLAG-Tax-WT) (HTLV-1) (UniProt P03409); test: co-IP; 293T cells co-transfected, lysed after 48 h in TNE lysis buffer; precipitation with anti-FLAG antibodies overnight at 4 °C, protein G magnetic beads; blot for ELL2
[3] = target: His-tagged version of Tax-1 (Tax-His) (HTLV-1) (UniProt P03409); test: co-IP; 293T cells co-transfected, lysed after 48 h in TNE lysis buffer (10 mM NaCl, 10 mM Tris/HCl pH 7.0, 10 mM EDTA, 1% Triton X-100, 2 mM DTT); precipitation with anti-Tax antibodies overnight at 4 °C, protein G magnetic beads; blot for ELL2
[4] = target: Tax-1 wildtype (Tax-WT), SV40-driven pSG-Tax-WT (HTLV-1) (UniProt P03409); test: as above
[5] = target: ELL2-myc (ELL2 wildtype, transcription elongation factor for RNA polymerase II 2) (not stated (the printed UniProt ID O00472 is the human entry)) (UniProt O00472); test: co-IP; 293T cells co-transfected, lysed after 48 h in TNE lysis buffer; precipitation with anti-ELL2 antibodies overnight at 4 °C, protein G magnetic beads; blot for Tax-1 or FLAG
[6] = target: endogenous ELL2 (human (endogenous in 293T)) (UniProt O00472); test: as above

Substance	binding [1]	further results
ELL2 ΔR2-myc (full-length ELL2 harboring a deletion of region R2, aa 443–474) (from UniProt O00472 1-640)	binds	
ELL2-C-myc (aa 353–640; R2 and R3) (from UniProt O00472 353-640) (domain or fragment)	binds	
ELL2-Met186-myc (aa 186–640; parts of R1, R2, and R3) (from UniProt O00472 186-640) (domain or fragment)	binds	
ELL2-N-myc (aa 1–515; R1 and R2) (from UniProt O00472 1-515) (domain or fragment)	binds	
ELL2-R1-myc (aa 1–353) (from UniProt O00472 1-353) (domain or fragment)	binds	
ELL2-R2-myc (aa 353–515) (from UniProt O00472 353-515) (domain or fragment)	no binding	
ELL2-R3-myc (aa 515–640) (from UniProt O00472 515-640) (domain or fragment)	binds	
ELL2-myc (ELL2 wildtype, transcription elongation factor for RNA polymerase II 2) (from UniProt O00472 1-640)	binds	binding [2]: binds; binding [3]: binds; binding [4]: binds
FLAG-Tax-WT (pCAG-FLAG-Tax-WT) (from UniProt P03409 1-353)		binding [5]: binds
His-tagged version of Tax-1 (Tax-His) (from UniProt P03409 1-353)		binding [5]: binds
Tax-1 wildtype (Tax-WT), SV40-driven pSG-Tax-WT (from UniProt P03409 1-353)		binding [5]: binds; binding [6]: binds weakly
